Test results as given in patent US20100075953A1, “SUBSTITUTED PIPERAZINES, (1,4) DIAZEPINES, AND 2,5-DIAZABICYCLO (2.2.1) HEPTANES AS HISTAMINE H1 AND/OR H3 ANTAGONISTS OR HISTAMINE H3 REVERSE ANTAGONISTS” (Glaxo Group Limited, priority 2002, published 2010).
Where a name gives a salt, the structure may show the parent alone. Some results were stated once for a whole list of compounds, not compound by compound.

Columns and labels:
human H1 receptor = target: T1, human H1 receptor (Homo sapiens, UniProt P35367); experiment: Histamine H1 functional antagonist assay; format: cell-based; conditions: CHO cells expressing human H1, suppression of histamine induced increase in fluorescence (FLIPR)
T1 construct: expressed in transfected cells
T1 sequence (P35367 whole entry): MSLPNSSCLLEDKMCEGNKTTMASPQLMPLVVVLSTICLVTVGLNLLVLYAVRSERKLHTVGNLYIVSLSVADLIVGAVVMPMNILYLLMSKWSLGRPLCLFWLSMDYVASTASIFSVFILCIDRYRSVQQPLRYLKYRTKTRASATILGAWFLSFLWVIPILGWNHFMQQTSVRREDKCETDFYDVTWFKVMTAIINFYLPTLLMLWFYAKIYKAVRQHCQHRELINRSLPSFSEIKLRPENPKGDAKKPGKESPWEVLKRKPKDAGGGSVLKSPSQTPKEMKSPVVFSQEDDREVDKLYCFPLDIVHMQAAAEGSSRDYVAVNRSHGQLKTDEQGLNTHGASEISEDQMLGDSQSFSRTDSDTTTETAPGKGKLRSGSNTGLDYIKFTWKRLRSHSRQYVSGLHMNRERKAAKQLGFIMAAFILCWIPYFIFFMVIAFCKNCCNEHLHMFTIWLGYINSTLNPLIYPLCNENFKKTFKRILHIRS

histamine H3 receptor = histamine H3 receptor (Homo sapiens, UniProt Q9Y5N1); experiment: Histamine H3 functional antagonist assay; conditions: membranes of CHO K1 cells expressing human H3; [35S]GTPgammaS SPA; histamine 0.3 μM
Sequence of histamine H3 receptor (Q9Y5N1 whole entry): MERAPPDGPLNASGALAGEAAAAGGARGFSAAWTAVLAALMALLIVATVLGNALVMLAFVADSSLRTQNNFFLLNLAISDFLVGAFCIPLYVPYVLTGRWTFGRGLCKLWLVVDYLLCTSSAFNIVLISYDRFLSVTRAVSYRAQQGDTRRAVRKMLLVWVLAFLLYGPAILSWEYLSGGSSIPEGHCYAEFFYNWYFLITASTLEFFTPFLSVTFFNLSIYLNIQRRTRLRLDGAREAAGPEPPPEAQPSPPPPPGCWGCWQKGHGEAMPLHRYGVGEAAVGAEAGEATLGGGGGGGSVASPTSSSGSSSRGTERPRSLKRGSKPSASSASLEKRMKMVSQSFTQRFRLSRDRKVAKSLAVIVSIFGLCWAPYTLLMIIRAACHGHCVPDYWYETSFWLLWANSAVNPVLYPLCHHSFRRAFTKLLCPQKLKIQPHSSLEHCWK

Structure (SMILES) | antagonism in the histamine H1 functional antagonist assay (pKb) (human H1 receptor) | antagonism in the histamine H3 functional antagonist assay (pKb) (histamine H3 receptor) | further results
Cc1cccc(C(=O)N2CCN(c3ccc(OCCCN4CCCCC4C)cc3)CC2)c1C (stereo not shown) [Example E158] | > 6.5 pKb | > 6.5 pKb | 
O=C(c1cccc(-c2ccncc2)c1)N1CCN(c2ccc(OCCCN3CCCCC3)cc2)CC1 [Example E119] | > 6.5 pKb | > 6.5 pKb | 
O=C(C(c1ccccc1)c1ccccc1)N1CCN(c2ccc(OCCCN3CCCCC3)cc2)CC1 [Example E245, 1-Diphenylacetyl-4-[4-(3-piperidin-1-ylpropoxy)phenyl]piperazine] | > 6.5 pKb | > 6.5 pKb | 
COC(=O)/C=C/c1ccc(C(=O)N2CCN(c3ccc(OCCCN4CCCC(C)(C)C4)cc3)CC2)cc1.O=C(O)C(F)(F)F [Example E222] | > 6.5 pKb | > 6.5 pKb | 
CCCc1ccc(C)c(C(=O)N2CCN(c3ccc(OCCCN4CCCCC4)cc3)CC2)c1 [Example E109] | > 7.3 pKb | > 6.5 pKb | antagonism in the histamine H1 functional antagonist assay (pKb) (human H1 receptor; listed as Example E109): > 6.5 pKb
CC1(C)CCCN(CCCOc2ccc(N3CCN(C(=O)c4cccc(Cl)c4Cl)CC3)cc2)C1.O=C(O)C(F)(F)F [Example E220] | > 6.5 pKb | > 6.5 pKb | 
CCc1ccc(C)c(C(=O)N2CCN(c3ccc(OCCCN4CCCCC4)cc3)CC2)c1 [Example E108] | > 7.3 pKb | > 6.5 pKb | antagonism in the histamine H1 functional antagonist assay (pKb) (human H1 receptor; listed as Example E108): > 6.5 pKb
C[C@@H]1CCC[C@H](C)N1CCCOc1ccc(N2CCN(C(=O)c3cccc4ccccc34)CC2)cc1.O=C(O)C(F)(F)F [Example E75] | > 6.5 pKb | > 6.5 pKb | 
CCC1CCC(C)N(CCCOc2ccc(N3CCN(C(=O)c4cccc(C)c4C)CC3)cc2)C1 (stereo not shown) [Example E144] | > 6.5 pKb | > 6.5 pKb | 
CC1CCN(CCCOc2ccc(CCN3CCN(C(=O)c4cccc5ccccc45)CC3)cc2)CC1.O=CO [Example E467] | > 6.5 pKb | > 6.5 pKb | 
COc1ccc(C)cc1C(=O)N1CCN(c2ccc(OCCCN3CCCCCCC3)cc2)CC1.O=C(O)C(F)(F)F [Example E170] | > 6.5 pKb | > 6.5 pKb | 
COc1ccc(C)cc1C(=O)N1CCN(c2ccc(OCCCN(C)C3CCCC3)cc2)CC1 [Example E186] | > 6.5 pKb | > 6.5 pKb | 
COC(=O)COc1ccc(C(=O)N2CCN(c3ccc(OCCCN4CCCC(C)C4)cc3)CC2)c2ccccc12 (stereo not shown) [Example E199] | > 7.3 pKb | > 6.5 pKb | antagonism in the histamine H1 functional antagonist assay (pKb) (human H1 receptor; listed as Example E199): > 6.5 pKb
Cn1cc(C(=O)N2CCN(c3ccc(OCCCN4CCCCC4)cc3)CC2)c2cc(F)ccc21 [Example E53, 5-Fluoro-1-methyl-3-{[4-(4-{[3-(1-piperidinyl)propyl]oxy}phenyl)-1-piperazinyl]carbonyl}-1H-indole] | > 6.5 pKb | > 6.5 pKb | 
CCc1ccc(C(=O)N2CCN(c3ccc(OCCCN4CCCCC4)cc3)CC2)cc1C#N [Example E99] | > 6.5 pKb | > 6.5 pKb | 
O=C(c1cccc2ccccc12)N1CCN(CCc2ccc(OCCCN3CCCCC3)cc2)CC1 [Example E465, 1-(1-Naphthalenylcarbonyl)-4-[2-(4-{[3-(1-piperidinyl)propyl]oxy}phenyl)ethyl]piperazine, formate] | > 6.5 pKb | > 6.5 pKb | 
O=C(O)C(F)(F)F.O=C(c1cccc2ccccc12)N1CCN(c2ccc(OCCCN3CCCCCCCC3)cc2)CC1 [Example E64] | > 7.3 pKb | > 6.5 pKb | antagonism in the histamine H1 functional antagonist assay (pKb) (human H1 receptor; listed as Example E64): > 6.5 pKb
CC(C)c1ccc(C(=O)N2CCN(c3ccc(OCCCN4CCCCC4)cc3)CC2)cc1Cl [Example E100] | > 7.3 pKb | > 6.5 pKb | antagonism in the histamine H1 functional antagonist assay (pKb) (human H1 receptor; listed as Example E100): > 6.5 pKb

Structure (SMILES) | antagonism in the histamine H1 functional antagonist assay (pKb) (human H1 receptor) | antagonism in the histamine H3 functional antagonist assay (pKb) (histamine H3 receptor) | further results
CCC1CCC(C)N(CCCOc2ccc(N3CCN(C(=O)c4cc(C)ccc4C(C)C)CC3)cc2)C1 (stereo not shown) [Example E148] | > 6.5 pKb | > 6.5 pKb | 
COc1ccc(C(C)(C)C)cc1C(=O)N1CCN(c2ccc(OCCCN3CCCCC3)cc2)CC1 [Example E501, 1-(5-tert-Butyl-2-methoxybenzoyl)-4-[4-(3-piperidin-1-ylpropoxy)phenyl]piperazine] | > 7.3 pKb | > 6.5 pKb | antagonism in the histamine H1 functional antagonist assay (pKb) (human H1 receptor; listed as Example E501): > 6.5 pKb
CN(CCCOc1ccc(N2CCN(C(=O)c3ccc(OCC(=O)O)c4ccccc34)CC2)cc1)C1CCCC1.O=C(O)C(F)(F)F [Example E499] | > 6.5 pKb | > 6.5 pKb | 
O=C(c1cccc2c1CCC2)N1CCN(c2ccc(OCCCN3CCCCC3)cc2)CC1 [Example E116] | > 6.5 pKb | > 6.5 pKb | 
Cc1cc(N2CCN(CCc3cccc(OCCCN4CCCCC4)c3)CC2)c2ccccc2n1.O=C(O)C(F)(F)F [Example E241] | > 6.5 pKb | > 6.5 pKb | 
Cc1cc(Br)ccc1C(=O)N1CCN(c2ccc(OCCCN(C)C3CCCC3)cc2)CC1 [Example E178] | > 6.5 pKb | > 6.5 pKb | 
O=C(O)COc1ccc(C(=O)N2CCN(c3ccc(OCCCN4CCCCC4)cc3)CC2)c2ccccc12 [Example E254] | > 6.5 pKb | > 6.5 pKb | 
COc1ccc(C(=O)N2CCN(c3ccc(OCCCN4CCCC(C)(C)C4)cc3)CC2)cc1C(C)C.O=C(O)C(F)(F)F [Example E206] | > 7.3 pKb | > 6.5 pKb | antagonism in the histamine H1 functional antagonist assay (pKb) (human H1 receptor; listed as Example E206): > 6.5 pKb
Cc1c(C(=O)N2CCN(c3ccc(OCCCN4CCCC4C)cc3)CC2)c2ccccc2n1C (stereo not shown) [Example E129] | > 6.5 pKb | > 6.5 pKb | 
Cc1cccc(C(=O)N2CCN(c3ccc(OCCCN4CCCC(C)C4)cc3)CC2)c1C (stereo not shown) [Example E193] | > 6.5 pKb | > 6.5 pKb | 
COc1ccc(C(=O)N2CCN(c3ccc(OCCCN(C)C4CCCC4)cc3)CC2)cc1C(C)C [Example E173] | > 6.5 pKb | > 6.5 pKb | 
Cc1c(C(=O)N2CCN(c3ccc(OCCCN(C)C4CCCC4)cc3)CC2)c2ccccc2n1C [Example E182] | > 6.5 pKb | > 6.5 pKb | 
O=C(c1cccc(O)c1)N1CCN(c2ccc(OCCCN3CCCCC3)cc2)CC1 [Example E94] | > 6.5 pKb | > 6.5 pKb | 
CCC1CCC(C)N(CCCOc2ccc(N3CCN(C(=O)c4cccc5ccccc45)CC3)cc2)C1.O=C(O)C(F)(F)F (stereo not shown) [Example E74] | > 6.5 pKb | > 6.5 pKb | 
O=C(c1cccc2c1-c1ccccc1C2)N1CCN(c2ccc(OCCCN3CCCCC3)cc2)CC1 [Example E248] | > 6.5 pKb | > 6.5 pKb | 
c1cc(CN2CCN(c3cccc4cccnc34)CC2)cc(OCCCN2CCCCC2)c1 [Example E229, 8-{4-[(3-{[3-(1-Piperidinyl)propyl]oxy}phenyl)methyl]-1-piperazinyl}quinoline trifluoroacetate] |  | > 6.5 pKb | antagonism in the histamine H1 functional antagonist assay (pKb) (human H1 receptor; listed as Example E229, trifluoroacetate): > 6.5 pKb; antagonism in the histamine H1 functional antagonist assay (pKb) (human H1 receptor; trifluoroacetate): > 7.3 pKb
CC1(C)CCCN(CCCOc2ccc(N3CCN(C(=O)c4cccc5ccccc45)CC3)cc2)C1.O=C(O)C(F)(F)F [Example E67] | > 7.3 pKb |  | antagonism in the histamine H1 functional antagonist assay (pKb) (human H1 receptor; listed as Example E67): > 6.5 pKb
O=C(c1ccc2ncsc2c1)N1CCN(c2ccc(OCCCN3CCCCC3)cc2)CC1 [Example E251] | > 6.5 pKb |  | 
